Consider 14 molecules from PMC12136788.

This is one part of the list.

Sequences and labels used below:
T1: UNK ZnF1-3 (human, UniProt Q9C0B0 31-174)
T1 sequence: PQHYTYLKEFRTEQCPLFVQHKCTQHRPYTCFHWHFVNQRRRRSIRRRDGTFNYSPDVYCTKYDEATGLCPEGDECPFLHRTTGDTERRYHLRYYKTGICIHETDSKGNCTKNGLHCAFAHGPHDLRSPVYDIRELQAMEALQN

B1: chr1:90180419:90180420:+_ENSG00000171488_ENST00000370454|hu_hu|FALSE|FALSE (ssRNA)
RNA: GGGAGUUCUACAGUCCGACGAUCAGCCCGACAGUCACCCAGUUCAGGAGGGAGGAUUUCAAAGUGAUUACCUUUUACAUCUAAGUAGGAAAGAAAUAGCAAAUUUCCAAUUUUCGGUGAAAGUACAGAUAGGCUGUUUUUUCCCAACAGAGGAUUGAGCAUCA
B2: chr16:30615004:30615005:-_ENSG00000156853_ENST00000287461|hu_hu|motif|central (ssRNA)
RNA: GGGAGUUCUACAGUCCGACGAUCUGCUACUUAACCUGAAAACUUGGGGGCAAAGUGGUUGUGAUUAUCUGAAGGGCUGCGGUGUAGAUGAAGUAUUAAACAUGUCGUAGGCAAGGUUUAGAGGAGAAUGUGGUACUUAACCUUCAACAGAGGAUUGAGCAUCA
B3: chr1:58468927:58468928:-_ENSMUSG00000026034_ENSMUST00000148330|mus_mus|mus_mus_mus_hu_False|1_88 (ssRNA)
RNA: GGGAGUUCUACAGUCCGACGAUCAAUUACUGAAAAAGAUGUUCAUUUAUUUGGUUUUGUACUUAAUGAACCAAAUUACCCAAACAAAAUAAACAUGGCAAUAUAAAAAUGUUAAGAAUUUACAAAGCUGUACAAAAAGACUGACAACAGAGGAUUGAGCAUCA
B4: chr5:136384420:136384421:-_ENSMUSG00000051391_ENSMUST00000055808|mus_hu|motif|central (ssRNA)
RNA: GGGAGUUCUACAGUCCGACGAUCGUACGACAGCUACAUAAUGACUCACAUUCAUGAUAUUCCAUCACUGAGGAAACUGCGGAAGAUGGUCCGUGUGUGAAAUAAUUCCUUAGAGAAACACGGAGCUGGAAAAAUAAUCACUGACAACAGAGGAUUGAGCAUCA
B5: chr3:167401952:167401953:-_ENSG00000114209_ENST00000497056|hu_mus|motif|central (ssRNA)
RNA: GGGAGUUCUACAGUCCGACGAUCAAAAGAAUGAUAAUAGCAAAAGUGAUGCAAAAUCUUCAUUGUGAGAUUAUGAUUAAGCGGCAUUUUACAAAAAUAUGGUGUAAGAUGGCAAUAAUCCCAUUCAACAUCCUGGAUUAGGUCCAACAGAGGAUUGAGCAUCA
B6: chr16:94664741:94664742:+_ENSMUSG00000040785_ENSMUST00000117648|mus_hu|mus_mus_mus_hu_False|1_48 (ssRNA)
RNA: GGGAGUUCUACAGUCCGACGAUCUGGUACUGAUCUUGGUAGCUGAUAUUCAGGAGAAAGGCUGGCCAAGGGUGUAUAUAUGCUGGUGAACUGCGACAAACCUGGUAACACGUUUAUGUAUGCUGGCGGUGUCUGGGUGCCAAACAACAGAGGAUUGAGCAUCA
B7: chr3:41281661:41281662:+_ENSG00000168036_ENST00000349496|hu_mus|FALSE|FALSE (ssRNA)
RNA: GGGAGUUCUACAGUCCGACGAUCACCUGCUUAUUUUAAGCAUAUUAAAAAGGAAACUAAUCGGACCAUUUCUAUCUGUCUAUUUAUACAAAAGGCUACACAAUGUUACACGUCUCCAGAUUACAAUUAGCGUGAUUAUGAAUUCAACAGAGGAUUGAGCAUCA
B8: chr4:40210074:40210075:-_ENSMUSG00000036822_ENSMUST00000042575|mus_mus|motif|central (ssRNA)
RNA: GGGAGUUCUACAGUCCGACGAUCUAUAGGACACUUAGAAUCAGGAGACGCAUCAGCUGGUACUGUCUGCUGCAAUUUGCGGGUGCCAGCUUUAGGUGAAAAGUUGUCCAUUUUAAAUUCCUUAGCAGCUGAGGCCAUUAUCUCCAACAGAGGAUUGAGCAUCA
B9: chr11:100882373:100882374:+_ENSMUSG00000019302_ENSMUST00000044721|mus_mus|mus_mus_mus_hu_True|38_48 (ssRNA)
RNA: GGGAGUUCUACAGUCCGACGAUCUUCCUGGUUUGUGUUGAUUUCCUUCAGUUCAUUUUCAAUCUUCUCAAAAUUGGCCUCUAAGUCGAUCAUGUCCCGAGGGAAGGGAACCUCUGGGUUUUCACCGGUGUCCAUAAUCGGAAUCAACAGAGGAUUGAGCAUCA
B10: chr6:8205991:8205992:-_ENSMUSG00000012483_ENSMUST00000012627|mus_hu|FALSE|FALSE (ssRNA)
RNA: GGGAGUUCUACAGUCCGACGAUCUAAUAAAAUAGAAACUUAGACUCGGACAACUGCUUUAUUCUUGCAUCUAAUCUGACCAUAUAUUGGAGUAGCAAUUCUUUAUAAAAGGACUUCGGUGAGAACUGUCAAUAUAUCAGUUCCCAACAGAGGAUUGAGCAUCA
B11: 35792141_35795328_1781_3pUTR_ENSMUSG00000020590_ENSMUST00000048519|mouse|control|control (ssRNA)
RNA: GGGAGUUCUACAGUCCGACGAUCUUAUGCUUCCUGUAGGAGACCCAUUAAAAGAUUCUCCAUCCCCAUCAUCUGAUCCUCUGAAACUAGGAUCUUUUAACAUGUCAAGCUCAGCUAGCAUUCGCACAUAGAGCGCAUUCUGCCCAACAGAGGAUUGAGCAUCA
B12: 56733260_56733380_582_CDS_ENSMUSG00000071054_ENSMUST00000095224|mouse|control|control (ssRNA)
RNA: GGGAGUUCUACAGUCCGACGAUCGGCCUCCUCCUCUUCCUCCACACAGUCUGCCACGCUGCCAUUGUCAAUGUCAGCCUCAUCCAGCACACUGAUGUCCAUCAUAUCCAUGUCUUGCAGGUUCUCCAGGCUGGUCUCCACAUCCAACAGAGGAUUGAGCAUCA
B13: chr17:5336369:5336370:-_ENSG00000108561_ENST00000225698|hu_mus|FALSE|FALSE (ssRNA)
RNA: GGGAGUUCUACAGUCCGACGAUCAAGGCCCGCAGUCUCUGAGUUCUACUGGUUCUUGACAAAGCUUUUGAGGUCCUCAAGAAAGGUGAUAUAUUCCUGGUGCUCCAGGGCUGUGCUGAGCUCCACCAACUCAUCCGCAAAAGUCAACAGAGGAUUGAGCAUCA
B14: chr19:16212804:16212805:+_ENSG00000167460_ENST00000300933|hu_mus|hu_hu_hu_mus_False|48_78 (ssRNA)
RNA: GGGAGUUCUACAGUCCGACGAUCAACAAUUCUGGAGUGAAGGAAAGAUGUAACAUGCAAUUAAUUAAAAGCUCAGUCAGAAGGCACGUGGGUAAUUAUGAUCACCCCAGCAUUCUCGCUUGGAAUGCUUAAAGACAAUCUGUUCAACAGAGGAUUGAGCAUCA

For the test, the target named is T1, UNK ZnF1-3. In words: nsRBNS (natural sequence RNA bind-n-seq); RBNS binding buffer (assumed for nsRBNS): 25 mM Tris pH 7.5, 150 mM KCl, 3 mM MgCl2, 0.01% Triton X-100, 500 ug/ml BSA, 20 U/ml SUPERase-In, 4 C; UNK is unkempt and MSI1 is Musashi-1; names of the RNAs are library labels; protein concentration not given here; high values mean tight binding.
For B1, the binding signal amounted to 1.84 enrichment R.
Molecule B2 gave a binding signal of 1.73 enrichment R.
Molecule B3 registered a binding signal of 1.72 enrichment R.
Next, B4: 1.2 enrichment R; B5: 0.71 enrichment R.
As for B6, the binding signal is 1.07 enrichment R.
Next, B7: 0.788 enrichment R.
B8 came in with a binding signal of 0.772 enrichment R.
Take B9: the binding signal came out at 0.624 enrichment R.
In turn, B10 displayed a binding signal of 1.37 enrichment R.
Next, B11: 1.16 enrichment R; B12: 0.774 enrichment R.
Molecule B13 gave a binding signal of 1.2 enrichment R.
Next, B14: 1.27 enrichment R.
